The supplement of paper PMC12632987
Whole data set: some 4,500 sequences, median “median log2 fold change of GCK-ALFA target abundance (FLAG IP / Myc IP barcode read proportion)” near 0.078, cut for the lowest 2% near -0.6. This is one part of the list.

B1: GBRAP_160_4485 (protein)
chain: MEKLEKAKKEVEELIKEAVEAIKEAPPEQRLPIARAYAGEIAQTVYELGLVDDEEFEELLELAEKLMKEVVEASEKGEEAMEEKAKELLEKIKKFLEEKS
B2: GBRAP_125_2990 (protein)
chain: SEEEILEALAKILKALGFDDEDVKEAVELARKHGIKGTLYAALAALGADEAADAVAKLTEEQAKELVLKVAEELEKNPGMTPEEVVELLLKVANELLAKA
B3: GBRAP_160_4430 (protein)
chain: AEKLEKAKKEIDALFAEALEMMKGQTAEQRIVVLRVTEGEVKLELEELGLLTDEVDAVIDATFAAIIAHVAAHPDITDAELAALLDAAAATIKAELDKAA
B4: GBRAP_43_5766 (protein)
chain: SKELVDGAFETAILMLEDPSISEETKVKAIIAAFELAADEGYVNKELLKKVVELAGKTLSKESLEKILKAVEEIAKKYPEAKEAFEEAAALLKKKIEEKK
B5: GBRAP_160_4786 (protein)
chain: MERIERASKLLREELEEAIKLSEGETPENRVNIFDVEIGSAIMELIEEGLLNDEEEEVLAEVRDELVARLRANPDLTPEEIRALAEEAVERFEKRLKELE
B6: GBRAP_160_4335 (protein)
chain: SAETEKLIKFIKEEFEKLKEDIKGLSIEQRKVLISGMFGEIIMELSENENISDELLDYVLEVEDELLETLDKNPDLSEEEIKELIDEAEEKIIEALKKSE
B7: GBRAP_160_4707 (protein)
chain: SETAEELIKYVDEEFEEMKEEIKGESAEQRATIARGAIGEIIMELVENPEASDELVDKVDEIGDELVETILSNPDLTDEEVEELIEEAREKIKKAIKEEI
B8: GBRAP_128_3373 (protein)
chain: VDEEKLEEVDELARAMAEADVEEARELAREIVELLSTLSKETAEKAVEIIKEHLPLLSAEKLDVFADVIRELRPEVDEYIASLLNDLEVEALNEAEEKEE
B9: GBRAP_80_6829 (protein)
chain: MEEELKKAIEELKKIDPEIAELVEEAIEIAKKLGVPLETLLRFTKAILELAKKDKEKARELVEELLKELKEAEKRGNKDEAEALLAEAESEALLAVEELE
B10: GBRAP_11_2877 (protein)
chain: KKEKLKEIAELAEKLVELIEKLLKEGTDNKELIEEATKLLEELEKLVKEYADEALKKLAKILKEEWEKALKDKENAEQYLQEALTIARVLSGQALLEYEE
B11: GBRAP_48_5826 (protein)
chain: AKPPLEVLEKLVEETVEFIKEIYEEAKEEGLSDEEILKMIKAELGDLSLELEEAGFEKAADFLRDPKNRDEIAKTLLELLKKGKVEEAKKYLLERLLKAE
B12: GBRAP_128_3253 (protein)
chain: MDEAVVERARAFVEALKNSDAETRKAIAAEFAAWLLSLSLEQAEQAAEVVKERLPELSAEDLDILADALAAAMPKATPEKANVLADLRVEALNEREEKEE
B13: GBRAP_9_7149 (protein)
chain: MKELIEKLREVVRDMFELVAEIVPEEVHPVVEKMLEEAEKRFEELAKDKTITKEEAVEKAKEIVREFRDAVAAEVDPETARMVQAVADTAELEIEEIAEE
B14: GBRAP_52_6006 (protein)
chain: MREELEKVLREALELVKAGKEEEAYKLLLETVKSLNDEEVELLVEELARLAARAPLEDHDAVWRLAELLAEALEEAGKDEALADEALARVAAALYDNELR
B15: GBRAP_57_6447 (protein)
chain: SAHLEAVRAAAAELIALLRAGAPPEERRAAAAALMDLLSDDVVDLVAAILDPEAAEGKDRAELKALVVEELLRLAEERGPAAAIRVVETALAQEELLAEE
B16: GBRAP_128_3292 (protein)
chain: SAEALRARYDAEVRALLALTPEELHKATLALIKEASAEGLEAVELLVEAIEAHVPEFTVEQLEAIAAALREAMKEVSPEEAALLADAENVALLEAERKEE
B17: GBRAP_11_2779 (protein)
chain: KEEALKEAAKLAEELAELIEKLLKEGLDNEELRKKAEELLKKLTELVKKNLDEDLKKLAEIAKEEWEKAKKDKANAKEHLERMLAAVRVLLGQILLLLEE
B18: GBRAP_11_2623 (protein)
chain: KKETLKKLAELAKEAAELAKKLLEEGVDNEELRKKLEEKIKELAKLTEENADEADKKDVEIIKELFEKSLKDKENAEKYFKELLAALRVLEGNYLLDIEE
B19: GBRAP_184_5070 (protein)
chain: KVFEETIKVNNKEEAIKKMDELEEKIKDFKGDLLVHVEMPEANKEVIKTILDKLAEIKDKGYVTKVTIGFDADFTEEEIDFAVEYADKKGISVTLAISEE
B20: GBRAP_52_6185 (protein)
chain: MREELRAEVLRMLALVKAGREAEARALAEELVARLSDEELELLVEVLAEVAAEAPLADADAVFRLAEILADALEAAGKDEALAEDILAAAARALHAKELA
B21: GBRAP_184_5197 (protein)
chain: KVTEVEKKAKNLEEVKEEMEELLEEAKKNKADLHVILDLEEVTLEMVKEIMETLKEIKEKGYAPNITLELSGKMSEENIDLAIKLADEAGVNLTLALDEE
B22: GBRAP_128_3567 (protein)
chain: STAAAVAQARALLEAIKAGDAATRRAAAEALVALLAAADPETREAITAEILERLPELSAEDLEVLADVFRAARPAADPATAEALAEIQVEALNEREEKEE
B23: GBRAP_79_6748 (protein)
chain: DVEEARKALADALKVVLPELTEEELEEMVKNDEKLKEALIRAGLSEEMAEELLEAIKRIPKYSKELFEKTKERMKGLPEEEKRDLLEATVAAVIYEAEKL
B24: GBRAP_166_4873 (protein)
chain: HMEELLKKAEKEIEKLLKEASEADEEEQVELYIEIGEIIEELKEAGASLEDILELIERTLKEAKKLGLDVKKLAGIIINVTDFNEEEIDKIDEIVEKVLK
B25: GBRAP_160_4743 (protein)
chain: SEELEKLKKEIKEIFEEGIELLKESKKEEALTIVKGIMGDVIMLVESSEAASDELEDKIAEIADEAIKEVEENKDKPVEYHIKIVKEAEEKILELIEKEI
B26: GBRAP_139_3728 (protein)
chain: DPAEKAVKEVVELTKKSLETGGEYVDEIADLLNSMDEETAEKAAEAMAEVVKSESFDKAEAFWDALIDTLLTKHKNEDLATIVEAAANRALAEIAVREEA
B27: GBRAP_128_3583 (protein)
chain: SVAEARAYTRATLAAIREADPETRRALARELAERFAALSPEERRAAADTIEERLPELSPEDLELLAEALRAADTSDDPLLTELAAAVEVEALNKEEEEEE
B28: GBRAP_11_2908 (protein)
chain: KKEKLKEAAKLAEKAAKLIEQLIKNGADDKELWAEAEKAAEELLKLAKEYLDESTVELAEYALELLKKAQADPKNAQQYLNEALATVRVILGQILLAIEE
B29: GBRAP_184_5188 (protein)
chain: MIEEYEIKVENVEEAKEKIKEIAEEIKGKEAELYVIVEAEKITVEIAKVIIEGLGEIKKAGYAKKIVVEFVGEMSEEVIDVAVEGAKEAGIQVVIAMSEE

biological target: GABARAP, O95166; assay: median log2 fold change of GCK-ALFA target abundance (FLAG IP / Myc IP barcode read proportion) (log2 ratio); each designed protein is fused to an ALFA-tag nanobody in HEK293 cells to bring the named protein to FLAG-tagged glucokinase (GCK); Myc marks an untargeted standard; higher = target protein stabilised (more abundant); conditions: target protein: 3xFLAG-MCP-GCK-ALFA reporter; HEK293 landing pad (RPLP)
Sequence (O95166 whole entry, the tested form may be a part): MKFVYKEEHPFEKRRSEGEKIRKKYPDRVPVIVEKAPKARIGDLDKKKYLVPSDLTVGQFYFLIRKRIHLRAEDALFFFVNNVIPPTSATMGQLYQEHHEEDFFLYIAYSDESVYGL
How it was run: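 HEK293 landing-pad cells received a recombined binder library fused to the ALFA nanobody and were induced with 2 μg mL^−1 doxycycline, then transfected with a plasmid encoding a FLAG-tagged target and a Myc-tagged standard. Lysates were collected after 48 h for anti-FLAG and anti-Myc immunoprecipitation, and the circular RNA barcodes were reverse transcribed, amplified and sequenced. Target abundance for each binder is the median log2 ratio of FLAG to Myc barcode read proportions. Barcodes had to reach a proportion of at least 10^−7 in both replicates, each binder needed at least 3 barcodes per replicate, a pseudocount of 10^−6 was applied, and the two replicates were pooled.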

Point of comparison: B21, “median log2 fold change” value 0.225. Against it:
- B1 — within 0.2 log units, 0.0718
- B2 — lower, -0.0521
- B3 — within 0.2 log units, 0.0561
- B4 — within 0.2 log units, 0.215
- B5 — within 0.2 log units, 0.0742
- B6 — lower, -0.0507
- B7 — lower, -0.312
- B8 — within 0.2 log units, 0.123
- B9 — within 0.2 log units, 0.192
- B10 — within 0.2 log units, 0.232
- B11 — within 0.2 log units, 0.157
- B12 — within 0.2 log units, 0.212
- B13 — within 0.2 log units, 0.0444
- B14 — lower, -0.177
- B15 — within 0.2 log units, 0.242
- B16 — lower, -0.0614
- B17 — within 0.2 log units, 0.244
- B18 — within 0.2 log units, 0.193
- B19 — within 0.2 log units, 0.235
- B20 — within 0.2 log units, 0.176
- B22 — within 0.2 log units, 0.197
- B23 — within 0.2 log units, 0.262
- B24 — lower, -0.298
- B25 — within 0.2 log units, 0.0899
- B26 — within 0.2 log units, 0.157
- B27 — within 0.2 log units, 0.294
- B28 — within 0.2 log units, 0.209
- B29 — within 0.2 log units, 0.0687
